Experimental data as given in PMC6363091.
Results are given in words; binding and its absence hold for the method and conditions named. For some assays here: In cells and extracts the contact can be indirect. Some binding calls cover weakened binding; strength is not graded here. For some assays here: Where a sequence is shown, tags or fusion partners need not be part of it. Blank lines part the entries; values can stand above or below the binder they belong to.

Amino acid sequences for entries named in this document (tags omitted).
UniProt Q9SV55: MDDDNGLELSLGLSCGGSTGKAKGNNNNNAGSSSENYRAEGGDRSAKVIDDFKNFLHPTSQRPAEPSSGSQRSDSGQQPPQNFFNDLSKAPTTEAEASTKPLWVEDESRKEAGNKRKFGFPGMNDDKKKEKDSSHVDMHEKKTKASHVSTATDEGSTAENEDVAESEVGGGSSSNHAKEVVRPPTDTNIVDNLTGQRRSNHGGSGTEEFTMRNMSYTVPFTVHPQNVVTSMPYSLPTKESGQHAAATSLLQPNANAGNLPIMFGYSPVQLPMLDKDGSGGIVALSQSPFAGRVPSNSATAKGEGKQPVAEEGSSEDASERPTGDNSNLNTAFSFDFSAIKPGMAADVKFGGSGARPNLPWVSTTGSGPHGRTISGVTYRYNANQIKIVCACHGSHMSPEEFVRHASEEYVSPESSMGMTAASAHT

Key:
[1] = target: NINJA fused to the C-terminus of YFP (Arabidopsis thaliana) (UniProt Q9SV55); assay: split reporter; BiFC with split YFP in N. benthamiana leaves, Agrobacterium strains mixed 1:1 (OD600 0.4 each) with a nuclear marker; confocal imaging two days later
[2] = target: NINJA fused to the binding domain (BD) of GAL4 (Arabidopsis thaliana) (UniProt Q9SV55); assay: two-hybrid; yeast AH109, ERF19 in pGADT7 (AD), partners in pGBKT7 (BD); growth and blue staining on SD -L-W-H with X-α-Gal, 30 °C, 3 d
[3] = target: T1, HDA6 fused to the binding domain (BD) of GAL4 (Arabidopsis thaliana) (UniProt Q9FML2); assay: as above
T1 sequence: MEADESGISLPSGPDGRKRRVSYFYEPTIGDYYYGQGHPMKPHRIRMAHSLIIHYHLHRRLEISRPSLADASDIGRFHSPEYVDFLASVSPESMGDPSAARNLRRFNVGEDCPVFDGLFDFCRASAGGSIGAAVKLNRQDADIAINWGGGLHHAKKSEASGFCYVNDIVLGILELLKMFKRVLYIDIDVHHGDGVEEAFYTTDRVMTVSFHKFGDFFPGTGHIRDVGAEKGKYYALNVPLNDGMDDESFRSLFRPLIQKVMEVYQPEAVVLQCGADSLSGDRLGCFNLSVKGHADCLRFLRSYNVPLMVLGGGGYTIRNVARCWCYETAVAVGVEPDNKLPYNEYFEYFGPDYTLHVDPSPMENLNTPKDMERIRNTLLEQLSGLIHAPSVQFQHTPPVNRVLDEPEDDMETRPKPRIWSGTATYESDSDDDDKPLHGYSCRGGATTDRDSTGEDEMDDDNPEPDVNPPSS

[4] = target: T2, HDA19 fused to the binding domain (BD) of GAL4 (Arabidopsis thaliana) (UniProt O22446); assay: as above
T2 sequence: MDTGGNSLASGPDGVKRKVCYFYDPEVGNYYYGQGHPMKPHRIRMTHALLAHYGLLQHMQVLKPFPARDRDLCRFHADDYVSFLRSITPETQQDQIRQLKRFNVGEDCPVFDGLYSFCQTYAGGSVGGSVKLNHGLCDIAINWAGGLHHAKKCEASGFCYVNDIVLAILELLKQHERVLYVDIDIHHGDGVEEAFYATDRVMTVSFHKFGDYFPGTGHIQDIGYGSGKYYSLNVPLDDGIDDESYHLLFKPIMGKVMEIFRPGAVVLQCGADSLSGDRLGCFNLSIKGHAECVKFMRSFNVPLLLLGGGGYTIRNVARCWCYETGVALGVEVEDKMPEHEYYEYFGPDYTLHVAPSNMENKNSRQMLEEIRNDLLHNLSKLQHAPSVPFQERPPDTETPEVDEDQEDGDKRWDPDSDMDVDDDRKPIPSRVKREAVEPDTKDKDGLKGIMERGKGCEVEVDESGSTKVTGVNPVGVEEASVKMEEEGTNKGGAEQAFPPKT

[5] = target: NINJA–GFP (Arabidopsis thaliana) (UniProt Q9SV55); assay: co-IP; Arabidopsis protoplasts co-transfected with GFP fusions and ERF19-HA3; total proteins immunoprecipitated with anti-GFP, blotted with anti-GFP and anti-HA

binding [1]: binds
B1: ERF19–nYFP (protein, UniProt O80542 1-144)
chain: MDYRESTGESQSKYKGIRRRKWGKWVSEIRVPGTRDRLWLGSFSTAEGAAVAHDVAFFCLHQPDSLESLNFPHLLNPSLVSRTSPRSIQQAASNAGMAIDAGIVHSTSVNSGCGDTTTYYENGADQVEPLNISVYDYLGGHDHV

binding [2]: binds
binding [3]: no binding
binding [4]: no binding
B2: ERF19 fused to the activation domain (AD) of GAL4 (protein, UniProt O80542 1-144)
chain: MDYRESTGESQSKYKGIRRRKWGKWVSEIRVPGTRDRLWLGSFSTAEGAAVAHDVAFFCLHQPDSLESLNFPHLLNPSLVSRTSPRSIQQAASNAGMAIDAGIVHSTSVNSGCGDTTTYYENGADQVEPLNISVYDYLGGHDHV

binding [5]: binds
B3: ERF19-HA3 (protein, UniProt O80542 1-144)
chain: MDYRESTGESQSKYKGIRRRKWGKWVSEIRVPGTRDRLWLGSFSTAEGAAVAHDVAFFCLHQPDSLESLNFPHLLNPSLVSRTSPRSIQQAASNAGMAIDAGIVHSTSVNSGCGDTTTYYENGADQVEPLNISVYDYLGGHDHV
